Results on 88 sequences are retold here after the supplement of paper PMC11417369.

± gives the standard deviation of the averaged measurements. This is one part of the list.

The assay has as its system PfAP2-LT AP2 domain (GST-tagged). Put plainly: gcPBM binding intensity (ln(normalized median fluorescence intensity)); higher = stronger DNA binding. Summed up:
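DNA-binding domains from P. falciparum, fused to GST and produced in E. coli, were put on an Agilent 4 × 180k double-stranded probe array for 1 h in 1× PBS holding 1% milk, 0.2 mg/ml BSA, 0.5% salmon testes DNA and 0.03% Triton X-100. Probes were primer-extended, 36 bp long and drawn from intergenic genomic regions, with negative controls included. After Alexa488 anti-GST antibody detection and a 488 nm scan, binding intensity was set as the highest Masliner-normalised natural-log median intensity across replicate spots of either probe orientation.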
Regarding “TATTAATTATATTTATGTACATAATCATATTATTAT [XGTACX_site7938]”, the “gcPBM binding intensity (ln)” value was 8.94 ± 0.44.
“TTTATTTATTACTAAAGTACTAAATCATATTATTAT [XGTACX_site2574]”: the “gcPBM binding intensity (ln)” value was 8.46 ± 0.47.
As for “ATGAACAAGTGGCACACACACATTATAACTAATTTA [CACACA_site5731]”, the figure is 9.37 ± 0.38.
Turning to “AAAATAATATTTCCTTGTACACATATGTATTTGTTC [XGTACX_site4430]”, the “gcPBM binding intensity (ln)” value was 9.15 ± 0.48.
As for “TTCTTTTTTTTTATCACACATATTACAATCTAGTGC [CACACA_site4697]”, the figure is 8.97 ± 0.41.
As for “GTATACATGCAAATTTTTATTTACAACCCCAAAAAG [XGTACX_negctrl_site255]”, the figure is 8.91 ± 0.24; as for “TTTTCATAATATACATGTACATATATAAATTATTAA [XGTACX_site5206]”, 8.42 ± 0.4; as for “TATTATAATATGCCTTGTACATATAACAAATTTATT [XGTACX_site108]”, 8.58 ± 0.45.
As for “TTTTTTTCACAAAATACACACAATATATTTTATATC [CACACA_site1138]”, the figure is 8.78 ± 0.53; as for “TTAACATAAATATATACACACCAATGATGGCATTTA [CACACA_site4952]”, 8.74 ± 0.35; as for “TATATATAATATATATGTACGTATATATATAATATA [XGTACX_site8383]”, 8.66 ± 0.35.
As to “GTTTCCTTAATATTCACACACATATATATAATATAT [CACACA_site1856]”, the “gcPBM binding intensity (ln)” value came to 9.22 ± 0.26.
As for “ATGTTATAAGATTTATGTACACACATATACACACCT [XGTACX_site1316]”, the figure is 9.46 ± 0.29; as for “AATAAAGCAATAAATACACACATATTTATATTTATA [CACACA_site7390]”, 8.98 ± 0.38; as for TTTATTTTCCAAAGGGTGCACATAGTTGAAACGATA, 8.62 ± 0.43.
Next, “ATATATAATTTTTACACACGCAATAAATATATATAT [CACACA_site4283]”: 8.91 ± 0.39; “TTTTGGATTGAGGACCTTTTTATAGAATTATGTTTT [TGCATGCA_negctrl_site544]”: 8.62 ± 0.49; “AGCAAAATGAAATAAATTGGAAAATATTACTGAACG [CACACA_negctrl_site1433]”: 8.76 ± 0.44.
As for “GCAAATCTTATATGAAGTACATATCTTATAAATAAA [XGTACX_site6903]”, the figure is 8.53 ± 0.45; as for “TTTATTATATTTTTTTGTACATATTGATGTATATAA [XGTACX_site6527]”, 8.65 ± 0.4.
Turning to TGAATTTACAAAATCATGCACTTAATTACAGAATAA, the “gcPBM binding intensity (ln)” value came out at 8.52 ± 0.43.
Next, “ATAAAAAAAAAAAGAAGTACATGTATTAAAATTTAT [XGTACX_site3927]”: 8.93 ± 0.53; “AACAAAGGATTTATATATACATACATACATACATAA [GTGCAC_negctrl_site469]”: 8.84 ± 0.41.
As for “ATTTTGGAAATAATATGTACATATACATAATATATA [XGTACX_site4177]”, the “gcPBM binding intensity (ln)” value is 8.58 ± 0.38.
For “CGAACACAAACACAAACACACATCATATATATATAT [CACACA_site4857]”, the “gcPBM binding intensity (ln)” value was 9.72 ± 0.24.
As for “AATATACAAAAAAAAAAAAAAAAAAAAAAGATGGAA [TGCATGCA_negctrl_site550]”, the figure is 8.53 ± 0.71; as for “ATCTTTTCATATTGCTGTACAAATTATTTTCATTCG [XGTACX_site492]”, 8.99 ± 0.42.
As for “TTAATATTAATTATATGTACATATAATATATATATA [XGTACX_site1757]”, the figure is 8.49 ± 0.22.
Next, “TGTATAAAATTCCATTGTACATATTATTTTACGACA [XGTACX_site7764]”: 8.66 ± 0.47; “GAGAAATGGAGACACACACACATATTATATATATAT [CACACA_site1532]”: 9.85 ± 0.15.
With “ATGTTAAACAAATCTATACACACGTATATGACAAAA [CACACA_site1783]”, the “gcPBM binding intensity (ln)” value turned out to be 9.1 ± 0.26.
Next, “AAAAGTCTTCAAATTTGTACATATATATATATATAT [XGTACX_site3404]”: 9.47 ± 0.3; “GGTACATACAGACACACACACAAAAAAAAAAAAATA [CACACA_site6844]”: 9.81 ± 0.64; “AATAAATTATATATCACACATATATATTTATATTTA [CACACA_site5964]”: 8.59 ± 0.42.
As for “ACATATAAAATATTCACACACAAGTTATAGTTCTCG [CACACA_site3626]”, the figure is 9.28 ± 0.36; as for ATATATATATATATAGTGCACATTTATATAATTATT, 9.53 ± 0.34.
As for “AAATGTGAACTATAATAATTTCAACGTCTGATATAA [TGCATGCA_negctrl_site440]”, the figure is 8.69 ± 0.47; as for “TTTCTTTCGAATGCTTCACACATTACTCTTAAATAG [CACACA_site5265]”, 8.66 ± 0.42; as for “CAAAACCTAATATGTACACACATATACATCACACTT [CACACA_site7480]”, 9.36 ± 0.38.
As for “AAATTTATAAAGAACACACACATATATATATATATA [CACACA_site48]”, the “gcPBM binding intensity (ln)” value is 10 ± 0.21.
As for “ATTTTGTTATTATATATATATATATATATATATATA [XGTACX_negctrl_site590]”, the figure is 9.29 ± 0.29; as for “ATATTTCTGTCAAGCACACATAATATTAATATATGT [CACACA_site318]”, 9.3 ± 0.29; as for “ATTTTAAATTAAATTACACACTACGAATAATATATT [CACACA_site4016]”, 8.7 ± 0.42.
Consider “ATTCATATGAAACACACACACACACCCATAAAAAAA [CACACA_site3246]”, for which the “gcPBM binding intensity (ln)” value was determined as 10.2 ± 0.2.
Consider “TCTTTTCAATTTTATATGATCTTAATATTTTATGAA [GTGCAC_negctrl_site294]”, for which the “gcPBM binding intensity (ln)” value came out at 8.38 ± 0.46.
As to “ATTTTTTACATACTCAAATGTTTTAATTTTTTATAT [CACACA_negctrl_site1213]”, the “gcPBM binding intensity (ln)” value stood at 8.76 ± 0.51.
Next, “TTTTTTTTTTTTTACACACACAAAATATTATAGGTA [CACACA_site7209]”: 9.09 ± 0.42; “ACATTAAAAAATTGTTTGCACTATATAAAATATTAA [GTGCAC_site9728]”: 8.39 ± 0.38; “AATATAAGAAAAATAACACACACATAAACATATATA [CACACA_site8899]”: 9.54 ± 0.35.
With “TTTCTTTTCTTCTCTATTTTTTTTTCACGGCATTAT [TGCATGCA_negctrl_site484]”, the “gcPBM binding intensity (ln)” value came out at 8.74 ± 0.52.
As to “TATATATATATATATTGTACTTTATATGTTCTTATA [XGTACX_site7545]”, the “gcPBM binding intensity (ln)” value was 9.37 ± 0.42.
In the case of “TTTTATAAAGGAAAAGCATGCAGACTAAAAGATCAT [TGCATGCA_site150]”, the “gcPBM binding intensity (ln)” value is 9.02 ± 0.25.
As for “AAATATTACATTTGTTAAATAATATGTTATACATAA [XGTACX_negctrl_site484]”, the figure is 8.31 ± 0.3; as for “TAATGGAGAAAAAAAAAACACACGGTACATTCAAAG [CACACA_site3117]”, 9.01 ± 0.46; as for “TGTATAAAAATTTATACACACATTTTATATATTTCA [CACACA_site1015]”, 8.7 ± 0.41.
Next, “TAATCCATAAGAAGCACACACATATATATATATTTT [CACACA_site1399]”: 9.35 ± 0.35; “TATTAATTATTATGACATACATATCAGTTATTAAAA [CACACA_negctrl_site600]”: 8.24 ± 0.45.
For the sequence “GAGAGGAACATTATATGTACATATTAATTCTAAAAT [XGTACX_site5433]”, the “gcPBM binding intensity (ln)” value came to 8.77 ± 0.47.
On to “ACAAATAAGTTTTATACACACATATAAGTAAATACA [CACACA_site4157]”, for which the “gcPBM binding intensity (ln)” value was determined as 8.93 ± 0.43.
With “ACAATATTTTTTTATAAACACACATATATATAAATA [CACACA_site9175]”, the “gcPBM binding intensity (ln)” value came to 8.6 ± 0.42.
Turning to “TATAGTGATATATACACACACTTGTCTTGTAAAAAT [CACACA_site6594]”, the “gcPBM binding intensity (ln)” value was 9.07 ± 0.35.
As for “TAGACTCCCAGACACACACACACACCCATATAATAT [CACACA_site593]”, the “gcPBM binding intensity (ln)” value was found to be 10.2 ± 0.35.
Take “TTTTTTTTTTTTGGTGCATGCACATTTTGTTTTTTT [TGCATGCA_site570]”: the “gcPBM binding intensity (ln)” value was 9.04 ± 0.46.
On to “TATTATTATTGTTGATGTACATTTAATATAATATAT [XGTACX_site4482]”, for which the “gcPBM binding intensity (ln)” value is 8.63 ± 0.28.
Next, “TTTAATATATATATGTGTACATATAAATTATATATA [XGTACX_site8511]”: 8.39 ± 0.54; “GTACTTATTAAATGTGCATGTTGATATATAAATGTA [TGCATGCA_site902]”: 8.69 ± 0.33.
Next, “TTTATATTTTAAAAAATAATATTATGTATTTTTAAA [TGCATGCA_negctrl_site507]”: 7.94 ± 0.45.
As for “ATATACATAAAAATATGTACATATAAAATATATACA [XGTACX_site2394]”, the figure is 8.86 ± 0.39.
With “ATATAATAAACGTGTACACAATTAAATTATTATATA [CACACA_site5017]”, the “gcPBM binding intensity (ln)” value was determined as 8.88 ± 0.41.
Next, “TTATTAAAAATGTATTGTACAAATTTATTAGTAAAT [XGTACX_site4799]”: 8.38 ± 0.42.
With “TTTTAATTGTTTATTTGTACATATGTTTAATTATAT [XGTACX_site571]”, the “gcPBM binding intensity (ln)” value worked out at 8.96 ± 0.59.
For “ATTTATACAAAGCTTCGTACATAATGTATTCTTTTT [XGTACX_site2166]”, the “gcPBM binding intensity (ln)” value worked out at 8.93 ± 0.52.
Take “TTTTTTGCTTGGGTGAGAAAAAATAAAATAAAGGAA [TGCATGCA_negctrl_site139]”: the “gcPBM binding intensity (ln)” value is 8.15 ± 0.45.
Take “TTTTTAAAAAAATTGATTCTTTTTCTTTTTTTTCTT [XGTACX_negctrl_site127]”: the “gcPBM binding intensity (ln)” value amounted to 8.09 ± 0.59.
On to “TTATAATCTTTTGGTTCTATAGAATATCAAAAAATA [CACACA_negctrl_site1149]”, for which the “gcPBM binding intensity (ln)” value was determined as 8.13 ± 0.4.
Consider “AAAAAATAAAAGGAAAAAAAAAAAAAAAAAAAAAAT [CACACA_negctrl_site635]”, for which the “gcPBM binding intensity (ln)” value is 8.64 ± 0.49.
As for “TATTATTGTCATTTTTTTTTTTTTTTTTTCTATTTC [XGTACX_negctrl_site114]”, the figure is 8.55 ± 0.54; as for “AGCACCCACCAACACACACACACACCCACCCACCGA [CACACA_site368]”, 10.22 ± 0.028.
As for “TTTTGCGAAAAAAGGTGTACTGTAAATATATTGAGG [XGTACX_site8941]”, the figure is 8.6 ± 0.34; as for “AAATAAATAAATATACGTACATATATATAATATATA [XGTACX_site5124]”, 8.91 ± 0.42; as for “TACGTAAATTTTAATACACACTATAGGATATTCTGC [CACACA_site5418]”, 8.9 ± 0.4.
Next, TTTTTTTTGATTTGTTTGCACTTATTTCCACAATAA: 8.79 ± 0.45; “TTAATATGTTTAACCATTTTACATAAATTGATTTGT [CACACA_negctrl_site1100]”: 8.86 ± 0.5; “TTTTTTTTTAATTACATAAAATAAAAATATTTCTAT [CACACA_negctrl_site584]”: 8.1 ± 0.51.
Take “ATTTTATTTATATACACACACATATATATATTATAT [CACACA_site822]”: the “gcPBM binding intensity (ln)” value worked out at 9.32 ± 0.37.
Next, “ATATATATATATAGGGGTACTTAAATTTTACTAACC [XGTACX_site1832]”: 9.35 ± 0.085; “AATAAATAAATAAATTAATATATATATATATATAGA [CACACA_negctrl_site1661]”: 8.6 ± 0.42; “AAAGGGTTACAAGAGGAACACACAAAAAAATAAATA [CACACA_site8406]”: 9.03 ± 0.83.
